{"source": "the supplement of paper PMC11417369", "note": "± gives the standard deviation of the averaged measurements. This is one part of the list.", "data": [{"system": "PfAP2-EXP AP2 domain (GST-tagged)", "assay": "gcPBM binding intensity (ln(normalized median fluorescence intensity)); higher = stronger DNA binding", "outline": "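Binding intensity is the highest Masliner-normalised natural-log median intensity over replicate spots in either probe orientation. To obtain it, GST-tagged P. falciparum DNA-binding domains made in E. coli were incubated for 1 h on an Agilent 4 × 180k array of primer-extended double-stranded 36-bp intergenic genomic probes plus negative controls. Detection used Alexa488 anti-GST antibody with scanning at 488 nm.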", "values": [{"sequence": "CACAAGAAAGTTCACACACACACATATATATATATA [CACACA_site6009]", "gcPBM binding intensity (ln)": "10.2 ± 0.18"}, {"sequence": "TATACTGATAAAAAAAGTACTAGAGTTTGTAAAAAT [XGTACX_site3934]", "gcPBM binding intensity (ln)": "8.7 ± 0.43"}, {"sequence": "AATTTTAATTTTTTGACACACATATAATATATATAT [CACACA_site3978]", "gcPBM binding intensity (ln)": "9.155 ± 0.049"}, {"sequence": "TTATATGTCAATTTGCGTACATACATAATTACATAT [XGTACX_site1546]", "gcPBM binding intensity (ln)": "8.735 ± 0.021"}, {"sequence": "ATAAGGTTACAACAAACACACAAAGGAATATACGCA [CACACA_site4090]", "gcPBM binding intensity (ln)": "9.06 ± 0.47"}, {"sequence": "AAGAAGAATAGGCGTTGTACGGAATGTAGTAGAGTT [XGTACX_site2430]", "gcPBM binding intensity (ln)": "9.28 ± 0.45"}, {"sequence": "TTAATATAAATATGATTTTTGATTCCTATACTATTT [CACACA_negctrl_site752]", "gcPBM binding intensity (ln)": "8.15 ± 0.3"}, {"sequence": "TTGTATTCATATGGTTGTACATATTAAAAGTTCTAA [XGTACX_site7255]", "gcPBM binding intensity (ln)": "8.49 ± 0.3"}, {"sequence": "TTTATTTATAGAATTACACACATATATACACAAATG [CACACA_site7338]", "gcPBM binding intensity (ln)": "8.6 ± 0.39"}, {"sequence": "TTTATTTTTAAAGGCACACACATTTTTATTTTTAAA [CACACA_site2021]", "gcPBM binding intensity (ln)": "8.42 ± 0.21"}, {"sequence": "TTCTTTTTTTTCAGTTGTACTTATAAGAAAGAAAAA [XGTACX_site4028]", "gcPBM binding intensity (ln)": "8.36 ± 0.47"}, {"sequence": "AATATAAATATAGGAAATGTAGTTAAAAGGTGTATG [CACACA_negctrl_site1233]", "gcPBM binding intensity (ln)": "8.79 ± 0.54"}, {"sequence": "TTATTATAAATAGGTAGTACATTTTGAACAAATATT [XGTACX_site8866]", "gcPBM binding intensity (ln)": "8.465 ± 0.064"}, {"sequence": "ATATATATAACAAAAGTGCATTAAGGGGATGCTATA", "gcPBM binding intensity (ln)": "8.91 ± 0.15"}, {"sequence": "AATTATGGGGAAAAGACACACATATATATATATATA [CACACA_site2589]", "gcPBM binding intensity (ln)": "10.3 ± 0.31"}, {"sequence": "TATGCAAGGAACCACACACACACACGGAAATGTATA [CACACA_site6490]", "gcPBM binding intensity (ln)": "8.7 ± 0.6"}, {"sequence": "ATACGACAAATATAAAGTACAAGCTTGGTTTTTATA [XGTACX_site8103]", "gcPBM binding intensity (ln)": "8.6 ± 0.56"}, {"sequence": "TTATATATATATGTATGTACTTATAACTTTTATTAG [XGTACX_site3190]", "gcPBM binding intensity (ln)": "8.41 ± 0.37"}, {"sequence": "ATTCTATAGAAACACACACACATGCATGCACCTATA [CACACA_site107]", "gcPBM binding intensity (ln)": "9.95 ± 0.17"}, {"sequence": "AAAAAGAAGATGCAAACATGCACACAGAAAAAAAAA [TGCATGCA_site375]", "gcPBM binding intensity (ln)": "8.81 ± 0.4"}, {"sequence": "TTTTCATTCCACAACGCACACCCATTTAAAAAAAAA [CACACA_site1377]", "gcPBM binding intensity (ln)": "8.78 ± 0.3"}, {"sequence": "TAATTTTTTTTTTTTTTTTTTTTTTTTTTTTTTTTA [CACACA_negctrl_site1218]", "gcPBM binding intensity (ln)": "7.63 ± 0.56"}, {"sequence": "TTTTTTTTTTGAATATGTACTTAAAAAAATTTTTTT [XGTACX_site3851]", "gcPBM binding intensity (ln)": "8.48 ± 0.45"}, {"sequence": "CTATTATAAAAATGATGTACACTTATATATACATAT [XGTACX_site6087]", "gcPBM binding intensity (ln)": "8.51 ± 0.4"}, {"sequence": "AAAAAAAAAAAAATTACACACATACAGATAATAATA [CACACA_site5244]", "gcPBM binding intensity (ln)": "8.54 ± 0.54"}, {"sequence": "ATAACATGAACATATGTTACACAAACATACATACAT [XGTACX_negctrl_site365]", "gcPBM binding intensity (ln)": "8.77 ± 0.22"}, {"sequence": "AATCAAATATTTAAATGTACTCAAGAAGGCTTAATC [XGTACX_site6907]", "gcPBM binding intensity (ln)": "8.6 ± 0.4"}, {"sequence": "AAAAAATATTTTAGTGGTACATTTGTAGCTCTCAAA [XGTACX_site4859]", "gcPBM binding intensity (ln)": "8.39 ± 0.4"}, {"sequence": "GAAAAAAAAAAAAAAAAACACACGGTACATTCAAAG [CACACA_site303]", "gcPBM binding intensity (ln)": "8.5 ± 0.58"}, {"sequence": "TATGAAGACACAAATACACACACTCAAAAAAAAAAA [CACACA_site2660]", "gcPBM binding intensity (ln)": "8.45 ± 0.54"}, {"sequence": "AAAAATATAATATAATGTACACAAAAAAAAAAAATC [XGTACX_site1427]", "gcPBM binding intensity (ln)": "8.73 ± 0.49"}, {"sequence": "AAATTATAATTAGGAACACACATATATATATATATA [CACACA_site3098]", "gcPBM binding intensity (ln)": "10.1 ± 0.33"}, {"sequence": "TACATGTATAATATAATACACACTATATAATATACA [CACACA_site2239]", "gcPBM binding intensity (ln)": "8.32 ± 0.35"}, {"sequence": "TACATACATACATACATACACACATATATATATATA [CACACA_site1996]", "gcPBM binding intensity (ln)": "10.1 ± 0.57"}, {"sequence": "ATCAAACAAAAAATAAAAAAATGCGACATGTGTACA [TGCATGCA_negctrl_site164]", "gcPBM binding intensity (ln)": "8.94 ± 0.65"}, {"sequence": "TTGAATACATATATATGTACATATTCTATGGTTAGA [XGTACX_site4088]", "gcPBM binding intensity (ln)": "8.59 ± 0.18"}, {"sequence": "CAAGGACAATTTACAAACATAATATATGTATATATA [TGCATGCA_negctrl_site5]", "gcPBM binding intensity (ln)": "8.3 ± 0.39"}, {"sequence": "TATAAAATTTAAATTATACACACTTAAGTAACATCA [CACACA_site531]", "gcPBM binding intensity (ln)": "8.74 ± 0.35"}, {"sequence": "GAAAATTATGTATATTGTACAAATATTATATTAAAT [XGTACX_site2467]", "gcPBM binding intensity (ln)": "8.54 ± 0.33"}, {"sequence": "TTAATATTTTTAATTTGTACATATAATTAAATCTCT [XGTACX_site1736]", "gcPBM binding intensity (ln)": "8.31 ± 0.47"}, {"sequence": "ATTATCTTCAAGTATGTACACACTATATATAATAAA [CACACA_site2441]", "gcPBM binding intensity (ln)": "8.66 ± 0.38"}, {"sequence": "CTGAGGAAGCTAATTACACACATGCATATTTTTTTT [CACACA_site2177]", "gcPBM binding intensity (ln)": "8.87 ± 0.54"}, {"sequence": "TGGTGTTTTTTTTAATGTACTTATAAAATAATACAT [XGTACX_site6574]", "gcPBM binding intensity (ln)": "8.58 ± 0.34"}, {"sequence": "TTTTTTTTACATGAACGTACATAATATATTTTATAA [XGTACX_site5249]", "gcPBM binding intensity (ln)": "8.48 ± 0.44"}]}]}
